Reference: PubChem BioAssay AID485294 (National Center for Advancing Translational Sciences (NCATS), 2010)
Hit rate of the full screen: of about 370,000 compounds, about 150 (0.041%) were called active. The inconclusive results got no clear call from the source; some entries with a clear call stand among them for comparison. Calls follow the shape of the dose curve; as a rule, active = well fitted inhibition curve with a large enough effect; inconclusive = small, poorly fitted or top-dose-only effect; inactive = flat fitted curve, though single readings scatter. Potencies of inconclusive entries are left out as doubtful fits.

Molecular target: Beta-lactamase (Escherichia coli (strain K12)) (UniProt P00811)
Experiment: qHTS Inhibitors of AmpC Beta-Lactamase (assay with detergent); also: nearly all actives have a fitted effect of over 25% in size
Settings: AmpC hydrolysis of nitrocefin, absorbance 480 nm, 0.01% Triton; series mostly up to 114 µM
Outline: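 AmpC (5.3 nM in the dispensed reagent) in 20 mM phosphate pH 7.0 with 0.01% (detergent screen) or 0.0001% Triton X-100 was preincubated with compounds for 15 min at room temperature. Nitrocefin was then added from an 800 uM solution, and hydrolysis was followed at 480 nm.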
Potency is read from the fitted curve at half-maximal effect; tags tell the direction and shape of the fitted curve.

Chain of UniProt P00811 (P00811 whole entry, looked up): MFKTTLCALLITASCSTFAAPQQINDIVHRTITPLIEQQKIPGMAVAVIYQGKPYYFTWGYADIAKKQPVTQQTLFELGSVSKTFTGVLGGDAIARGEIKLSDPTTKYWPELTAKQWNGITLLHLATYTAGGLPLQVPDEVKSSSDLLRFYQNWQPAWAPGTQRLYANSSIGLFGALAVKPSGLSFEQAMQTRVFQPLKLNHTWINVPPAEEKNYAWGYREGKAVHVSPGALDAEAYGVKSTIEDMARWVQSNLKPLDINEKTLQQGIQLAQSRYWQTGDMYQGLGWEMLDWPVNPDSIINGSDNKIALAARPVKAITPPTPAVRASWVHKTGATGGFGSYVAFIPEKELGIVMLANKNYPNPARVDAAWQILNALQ

| SMILES | Potency |
| --- | --- |
| Oc1ccc(Cl)cc1Cc1cc(Cl)ccc1O | inactive |
| CCN(CC)CCOc1ccc2c(c1)C(=NO)c1cc(OCCN(CC)CC)ccc1-2 | inconclusive [inhibitor, partial curve] |
| Cc1cc(C)n(C(=O)CNC(=O)c2ccco2)n1 | inconclusive [inhibitor, full curve, poor fit] |
| Nn1c(SCC(=O)Nc2ccc(F)cc2)nnc1C1CCCCC1 | inconclusive [inhibitor, single point] |
| CN(Cc1cccs1)C(=O)c1ccc(S(=O)(=O)N2CCCCC2)cc1 | inactive |
| O=c1cc(CNc2cc(C(F)(F)F)cc(C(F)(F)F)c2)nc2sccn12 | inconclusive [inhibitor, full curve, poor fit] |
| O=C(c1ccccc1[N+](=O)[O-])N1CCC2(CC1)OCCO2 | inconclusive [inhibitor, full curve, poor fit] |
| O=C(CNC1CCN(Cc2ccccc2)CC1)Nc1ccc(S(=O)(=O)N2CCCCC2)cc1 | inactive |
| COc1cccc(CN(C)C(=O)CNC(=O)c2cccs2)c1OC | inconclusive [inhibitor, partial curve, poor fit] |
| O=C(O)c1ccc(-c2nc(-c3ccc(Cl)cc3Cl)cs2)cc1 | inconclusive [inhibitor, single point] |
| COc1cc2c(cc1NC(=O)COC(=O)c1ccccc1)oc1ccccc12 | inactive |
| CCC(C)(NC(=O)c1ccc(=O)[nH]c1)C(=O)NC1CCCC1 (stereo not drawn) | inconclusive [inhibitor, full curve, poor fit] |
| COc1ccc(Cn2c(C(=O)O)c(CNCc3ccccc3F)c3ccc(OC)cc32)cc1 | inactive |
| Cc1ccc(CNC(=O)[C@@H](NC(=O)C2CCN(C(=O)[C@@H]3CCCN3)CC2)C(C)C)cc1 | inconclusive [inhibitor, full curve, poor fit] |
| O=C(CCCN1C(=O)S/C(=C\C=C\c2ccccc2)C1=O)Nc1ccc(O)cc1 | inactive |
| CCOc1ccc(N2C(=O)CC(SCc3nc4ccccc4[nH]3)C2=O)cc1 (stereo not drawn) | inactive |
| COCC(=O)N(Cc1cc2cc(C)ccc2[nH]c1=O)c1ccc(C)c(C)c1 | inconclusive [inhibitor, partial curve, poor fit] |
| C=CCOc1ccc(C2c3c(oc4ccccc4c3=O)C(=O)N2CCCN2CCOCC2)cc1 (stereo not drawn) | inconclusive [inhibitor, full curve, poor fit] |
| O=C(COc1ccc(F)cc1)N(c1ccccn1)C1CCCCC1 | inconclusive [inhibitor, full curve] |
| Cc1[nH]nc2c1C(c1ccc(-c3ccc(Cl)cc3)o1)C(C#N)=C(N)O2 (stereo not drawn) | inconclusive [inhibitor, partial curve] |
| CCCNC(=O)c1c[nH]c2ccc(S(=O)(=O)N(C)c3ccc(OCC)cc3)cc2c1=O | inactive |
| C=CCSc1nnc2c(n1)[nH]c1c(C)cccc12 | inactive |
| COC(=O)c1ccc(NC(=O)CC2C(=O)N(c3cccc(OC)c3)C(=O)N2Cc2cccs2)cc1 (stereo not drawn) | inconclusive [inhibitor, single point] |

| SMILES | Potency |
| --- | --- |
| COc1cc(C2C(C#N)=C(N)Oc3c2ccc2ccccc32)ccc1OCC(=O)Nc1ccccc1C (stereo not drawn) | inactive |
| CCSc1nnc(NC(=O)c2cccs2)s1 | inconclusive [inhibitor, full curve, poor fit] |
| Cc1ccc(C(=O)/C=C/Nc2ccc3c(c2)OCO3)cc1 | inconclusive [inhibitor, partial curve] |
| Cc1ccc(CN2CCC(c3nc4ccc(Cl)cc4[nH]3)CC2)cc1 | inactive |
| O=S(=O)(NCC1OCCc2ccccc21)c1ccc(S(=O)(=O)N2CCOCC2)cc1 (stereo not drawn) | inconclusive [inhibitor, single point] |
| Cc1cc2[nH]c3ccccc3c2cn1 | inconclusive [inhibitor, partial curve] |
| COC(=O)C(O)(c1ccc(N(C)S(=O)(=O)c2ccccc2)cc1)C(F)(F)F (stereo not drawn) | inconclusive [inhibitor, full curve, poor fit] |
| CCN1CCN(c2ccc(NC(=O)c3ccco3)cc2Cl)CC1 | inconclusive [inhibitor, full curve] |
| COc1ccc(S(=O)(=O)NCC(c2ccc3c(c2)OCO3)N2CCN(C)CC2)cc1OC (stereo not drawn) | inconclusive [inhibitor, full curve, poor fit] |
| COC(=O)c1ccc(-c2ccc(F)cc2)nc1C | inconclusive [inhibitor, full curve] |
| COc1ccc(NC(=S)Nc2ccccc2OC)c(OC)c1 | inactive |
| CCC1(c2ccccc2)NC(=O)N(CC(=O)Nc2cc(C(F)(F)F)ccc2N2CCCC2)C1=O (stereo not drawn) | inconclusive [inhibitor, full curve, poor fit] |
| NC(=O)c1ccc(C[C@H](C(=O)O)N2C(=O)c3ccc(C(=O)O)cc3C2=O)cc1 | inconclusive [inhibitor, full curve, poor fit] |
| Cc1ccc(Cl)c(OCC(=O)Nc2ccccc2N2CCCCC2)c1 | inconclusive [inhibitor, full curve] |
| COc1ccc(Cl)cc1NC(=O)C1CC(=O)N(c2ccc(F)cc2)C1 (stereo not drawn) | inconclusive [inhibitor, partial curve, poor fit] |
| CC(C)(C)n1ncc2c(=O)n(CC(=O)c3ccccc3)cnc21 | inactive |
| O=C(O)C1CCCN1S(=O)(=O)c1ccc2[nH]c(=O)c(=O)[nH]c2c1 (stereo not drawn) | inconclusive [inhibitor, single point] |
| Cc1ccc(Cl)cc1N1CCN(S(=O)(=O)c2ccc3c(c2)oc(=O)n3C)CC1 | inconclusive [inhibitor, full curve, poor fit] |
| CN(CC(=O)Nc1ccc(F)cc1)C(=O)COC(=O)CCN1C(=O)C2CC=CCC2C1=O (stereo not drawn) | inconclusive [inhibitor, full curve, poor fit] |
| CC(C)CCNC(=O)C1CCC(CNc2c(N3CCCC3)c(=O)c2=O)CC1 (stereo not drawn) | inactive |
| C[C@@H](C(O)c1ccccc1)N(C)C(=O)CCc1ccccc1 (stereo partly drawn) | inconclusive [inhibitor, partial curve, poor fit] |
| Cc1cccc(NC(=O)C(C)C(=O)c2ccccc2)c1 (stereo not drawn) | inconclusive [inhibitor, partial curve] |
| Nc1ccc(NC(=O)c2ccc(C(=O)Nc3ccc(N)cc3)cc2)cc1 | inactive |

| SMILES | Potency |
| --- | --- |
| O=C(NC1CCCCC1)N(CCN1CCCC1)Cc1cc2cc3c(cc2[nH]c1=O)OCCO3 | inconclusive [inhibitor, full curve] |
| COc1ccc(CNC(=O)CC2(CC(=O)O)CCCCC2)cc1 | inconclusive [inhibitor, single point] |
| CCN(CC)S(=O)(=O)c1cccc(-c2nnc(SCC(=O)NC3CCCC3)n2N)c1 | inconclusive [inhibitor, full curve] |
| CCOC(=O)C1=C(COC(=O)Cc2ccc(OC)c(OC)c2)NC(=O)NC1C (stereo not drawn) | inconclusive [inhibitor, partial curve, poor fit] |
| N#Cc1nc(-c2cccc3ccccc23)oc1NCCN1CCOCC1 | inconclusive [inhibitor, full curve, poor fit] |
| O=C(NC(NC(=S)Nc1c(Cl)cc(Cl)cc1Cl)C(Cl)(Cl)Cl)OCc1ccccc1 (stereo not drawn) | inconclusive [inhibitor, full curve, poor fit] |
| O=C(NCCc1ccncc1)c1ccccc1F | inconclusive [inhibitor, single point] |
| CCOc1ccccc1N1CCN(C(=O)c2cccs2)CC1 | inconclusive [inhibitor, partial curve, poor fit] |
| Oc1ccccc1C1=Nc2nc3ccccc3n2C(c2ccccc2)C1 (stereo not drawn) | inactive |
| CCOCCc1nn2c(=O)cc(COC(=O)c3ccccc3NC(=O)C3CCCCC3)nc2s1 | inactive |
| CC(C)CC(NC(=O)C(CC(C)C)NC(=O)OC(C)(C)C)C(N)=O (stereo not drawn) | inconclusive [inhibitor, single point] |
| O=C(Nc1nc2ccc(F)cc2s1)Oc1ccccc1 | inactive |
| O=C(Nc1cccc(Cl)c1)O/N=C\c1ccncc1 | inactive |
| CCOc1ccc(N2C(=O)CC(N3CCOCC3)C2=O)cc1 (stereo not drawn) | inconclusive [inhibitor, full curve] |
| CNC(=O)C(=O)NCCCN1CCOCC1 | inconclusive [inhibitor, full curve, poor fit] |
| CCCCN(CCCC)CCNC(=O)Cn1nc(CC)n2c(cc3sc(C)cc32)c1=O | inactive |
| Cc1ccc(CS(=O)(=O)c2ncc(Cl)c(C(=O)Nc3nc4ccc(C)cc4s3)n2)cc1 | inactive |
| Cc1cc(C(=O)OCC(=O)Nc2ccccc2F)c(C)o1 | inconclusive [inhibitor, full curve, poor fit] |
| Cc1cc(Nc2ccc(Cl)cc2)nc(-c2ccccc2O)n1 | inconclusive [inhibitor, full curve, poor fit] |
| N#Cc1c(-c2cccc(F)c2)cc(-c2ccccc2)nc1Br | inconclusive [inhibitor, partial curve] |
| COc1ccccc1C(=O)COC(=O)CNC(=O)c1ccc(Br)o1 | inconclusive [inhibitor, full curve, poor fit] |
| Cc1ccc(NC(=O)CCS(=O)(=O)c2cccc3nonc23)cc1Cl | inconclusive [inhibitor, full curve] |
